Several values for one entry are separate records, joined by “and”; a condition that tells them apart may be missing. Equal values may be shown once. About 540 (0.36%) of roughly 150,000 compounds showed an effect of 50% or more. Some of the results follow.
Test system: Plasmodium falciparum
Assay: Primary screen in NF54 nanoGlo assay, in single point, at 2uM, 72h; a lower Z score goes with more inhibition
Format: functional, Erythrocyte
Conditions: timepoint 72 hour

## C[C@@H](c1ccc2c(c1)OCCO2)N(C)C(=O)c1cccn1C1CC1
  % Inhibition: 3%
  Z score: -0.37

## O=C(COc1ccccc1F)N1CCC(=C2CC2)CC1
  % Inhibition: -4%
  Z score: 0.6

## CCC(CC)(CNC(=O)C1CC2CC(N)C2C1)C(F)(F)F (centres undefined)
  % Inhibition: 4%
  Z score: -0.5

## COc1cn(CC(=O)N2CCOCC2)c(CN2CCc3ccccc3C2)cc1=O
  % Inhibition: 1%
  Z score: -0.17

## O=C(NCc1ccccc1)C1CCC(Cn2cnnn2)CC1 (centres undefined)
  % Inhibition: 4%
  Z score: -0.46

## O=C(c1nccnc1-c1nc2ccccc2s1)N1CCc2sccc2C1
  % Inhibition: 32%
  Z score: -4.1

## Cc1ocnc1CNC(=O)NC[C@]1(O)CCCC1(C)C
  % Inhibition: 5%
  Z score: -0.99

## Clc1ccc(-c2noc(-c3cccnc3N3CCOCC3)n2)cc1
  % Inhibition: -7%
  Z score: 1.01

## CCc1cc(CN(C)CCC(=O)Nc2cccnc2)on1
  % Inhibition: -2%
  Z score: 0.3

## CCOC[C@@H](O)CN1CCN(c2nc(-c3ccccc3)nc(CC)c2Cc2ccccc2F)CC1
  % Inhibition: -15%
  Z score: 1.98

## O[C@H]1Cc2ccccc2[C@H]1NC1CCC(O)(C(F)(F)F)CC1 (some centres undefined)
  % Inhibition: -4%
  Z score: 0.32

## O=S(=O)(c1cccs1)N(CCO)c1ccc(F)cc1F
  % Inhibition: -6%
  Z score: 1.12

## CCn1ccc(C(=O)N(C)Cc2cnn(C(C)C)c2)cc1=O
  % Inhibition: -16%
  Z score: 2.28

## COc1ccccc1CN1C[C@@H](c2nc(CC3CCN(C)CC3)no2)CCC1=O
  % Inhibition: 14%
  Z score: -1.78

## Cc1ncc(CNC(=O)c2ccc(NC(C)C)nc2)c(N)n1
  % Inhibition: -6%
  Z score: 0.54

## CC(C)C(C)NC(=O)NCC(O)c1ccccc1F (centres undefined)
  % Inhibition: 0%
  Z score: 0.02

## COCC(O)CNC1C[C@H](C)CCC1=C(C)C (some centres undefined)
  % Inhibition: 4%
  Z score: -0.59

## Cc1ccc(-c2nc(C3(Cn4ccnc4)CC3)n(CC(=O)O)n2)o1
  % Inhibition: -6%
  Z score: 1.16

## CCc1cc(C(=O)N2CCN(c3ccc(OC)cc3)CC2)nc2ccnn12
  % Inhibition: -2%
  Z score: 0.35

## CNC(=O)Nc1ccc(C(F)(F)F)nn1
  % Inhibition: -15%
  Z score: 1.47

## CCn1c(COC(=O)CNC(=O)c2ccccc2OC)nc2cc(S(=O)(=O)N(C)C)ccc21
  % Inhibition: -11%
  Z score: 1.06

## Cc1cc(C(=O)Nc2nc(-c3ccc4c(c3)COC4)cs2)on1
  % Inhibition: -4%
  Z score: 0.66

## CCc1nsc(N2CCOC[C@H]2c2ccnn2C)n1
  % Inhibition: 0%
  Z score: 0.04

## Cn1c(CN2CC[C@H](NC(=O)c3ccncc3)[C@@H](O)C2)cc2cc(F)ccc21
  % Inhibition: -6%
  Z score: 1.02

## CN(Cc1ccccc1)C(=O)CCC1CCN(C(=O)[C@@H]2CC=CCC2)CC1
  % Inhibition: -2%
  Z score: 0.27

## O=C(c1nc2ccccc2s1)N1CCC[C@H](Oc2ccncc2)C1
  % Inhibition: 1%
  Z score: -0.08

## COc1cccc(C(=O)N/C(=N/c2ccc(F)cc2)N2CCN(C3CCCCC3)CC2)c1
  % Inhibition: -6%
  Z score: 1.2

## c1cc2occc2c(-c2ccnc3[nH]ccc23)n1
  % Inhibition: 0%
  Z score: -0.04

## CC1CCCCN1CCC1CCN(C(=O)C2CCCC23OCCO3)CC1 (centres undefined)
  % Inhibition: -3%
  Z score: 0.44

## C[C@H](NC(=O)NCCc1c[nH]c2ccc(F)cc12)C1=CCN(C)CC1
  % Inhibition: 1%
  Z score: -0.11

## O=C(NCC1CC1)c1ccc2[nH]c3c(c2c1)CCCCC3
  % Inhibition: -12%
  Z score: 1.65

## CC1CC(C)CN(Cc2csc(NC(=O)CCc3cnn(C)c3)n2)C1 (centres undefined)
  % Inhibition: -34%
  Z score: 4.04

## N#Cc1ccc(C(=O)NC(Cc2ccncc2)[C@H]2C[C@H](O)C2)cn1 (some centres undefined)
  % Inhibition: 10%
  Z score: -1.94

## COCC1(N(C)Cc2ccccc2Cn2cccn2)CC1
  % Inhibition: -8%
  Z score: 1.39

## CCc1c([C@H](C)S(=O)(=O)c2ccccc2)[nH]c(=O)n1-c1ccc(OC(F)(F)F)cc1
  % Inhibition: 1%
  Z score: -0.15

## CN(C)[C@@H](C(=O)N1Cc2cncnc2C1)c1ccccc1
  % Inhibition: -15%
  Z score: 2.69

## CCCCN(CCCC)C(=O)c1cccc(NC(=O)CCC)c1
  % Inhibition: -15%
  Z score: 2.86

## O=C(N[C@H]1CCO[C@@H]1c1cc[nH]n1)c1cccc(-n2cccn2)n1
  % Inhibition: 2%
  Z score: -0.43

## Cc1nccc(N2CC(N3CCNC3=O)C2)n1
  % Inhibition: -9%
  Z score: 1

## C[C@@H]1C[C@H](O)CN(C(=O)CC(C)(F)F)C1
  % Inhibition: -6%
  Z score: 0.79

## N#Cc1ccccc1N1CCCOC1=O
  % Inhibition: 5%
  Z score: -0.61

## Cc1cc(Cl)ccc1OCCNS(=O)(=O)c1ccc2ccccc2c1
  % Inhibition: -15%
  Z score: 1.98

## Cc1ccc(-c2ccccc2CN2CCN(C(=O)c3nc[nH]n3)CC2)o1
  % Inhibition: 3%
  Z score: -0.59

## Cc1cccc(C(=O)NCCn2nc(C3CC3)ccc2=O)c1
  % Inhibition: 3%
  Z score: -0.41

## CCCCN(CCO)C(=O)Nc1ccnnc1C
  % Inhibition: 15%
  Z score: -1.74

## CCN(C(=O)CCN1CCC[C@@H](O)C1)c1ccccc1
  % Inhibition: 6%
  Z score: -1.03

## CC(=O)N[C@@H]1CC[C@H]2CCOc3ccccc3C(=O)N3CCN(C4Cc5ccccc5C4)C[C@H]3C(=O)NC[C@H]1O2
  % Inhibition: 1%
  Z score: -0.18

## Cc1nc(-c2cccc(F)c2)nc2c1CC(=O)N2CC(C)C
  % Inhibition: -2%
  Z score: 0.26

## CN1CCCN(c2ccc3ccccc3n2)CC1
  % Inhibition: -12%
  Z score: 1.53

## c1cc(Cn2cccn2)cc(-c2nc(-c3cn4ccccc4n3)no2)c1
  % Inhibition: -16%
  Z score: 2.12

## CCC(C)(C)NC(=O)CC[C@H]1CCCO1
  % Inhibition: 0%
  Z score: -0.02

## CC(C)c1csc(-c2c(-c3ccccc3)ncn2[C@H]2CS(=O)(=O)C[C@@H]2O)n1
  % Inhibition: -5%
  Z score: 0.86

## CCc1cnc(CN(C)Cc2[nH]c(C)nc2C)s1
  % Inhibition: -4%
  Z score: 0.54

## COC[C@H]1[C@@H](NC(=O)c2ccc(-c3noc(C(C)C)n3)cc2)[C@H]2CCO[C@H]21
  % Inhibition: -3%
  Z score: 0.54

## COc1ccc(CNC(=O)c2ccc3c(c2)CC(=O)N3C)cc1OC
  % Inhibition: -8%
  Z score: 0.94

## CCn1cc(-c2ccc(C(=O)N(C)C[C@H](O)c3ccccc3)cc2)c(C)n1
  % Inhibition: 9%
  Z score: -1.17

## O=C(Nc1cncc(Br)c1O)[C@H](C1CC1)N1CCCC1
  % Inhibition: -10%
  Z score: 1.87

## Cc1n[nH]cc1CNCCc1ccsc1
  % Inhibition: 4%
  Z score: -0.56

## Cc1cc(C(=O)N2CCNC(=O)C[C@H]2c2ccccc2)nn1-c1ccc(F)cc1
  % Inhibition: 13%
  Z score: -1.54

## COc1ccccc1CNC(=O)c1nn(-c2ccccc2OC)c(=O)c2ccccc12
  % Inhibition: 8%
  Z score: -0.91

## O=S(=O)(Cc1ccccc1)N1CC(N2CC(F)(F)C[C@H]2CO)C1
  % Inhibition: -12%
  Z score: 1.34

## O=C1C[C@H]2CC[C@@H](CN1)N2Cc1ccc(OCc2ccccc2)cc1
  % Inhibition: -4%
  Z score: 0.83

## O=C(NCC#CCN1CCOCC1)Nc1ccccc1C(F)(F)F
  % Inhibition: -12%
  Z score: 1.32

## Cc1ccc(CNC(=O)CN2CC[C@H](C(=O)N(C)C)C2)s1
  % Inhibition: -14%
  Z score: 1.83

## CC[C@H](NC(=O)c1n[nH]c2c1CN(C)CC2)c1ccc(S(C)(=O)=O)cc1
  % Inhibition: -5%
  Z score: 0.64

## CNS(=O)(=O)c1ccc(N(C)[C@H]2C[C@@H](OC)C2)c(F)c1
  % Inhibition: 3%
  Z score: -0.52

## O=C(Cn1cc(C2CC2)nn1)NCC1([C@H](O)c2ccccc2)CC1
  % Inhibition: -13%
  Z score: 1.89

## O=C(CCn1cnc2cc(S(=O)(=O)N3CCCCC3)ccc21)N1CCN(c2ccccn2)CC1
  % Inhibition: 4%
  Z score: -0.46

## Cc1cccc(OC(C)(C)c2nc([C@H]3CCOC3)no2)c1
  % Inhibition: -7%
  Z score: 1.33

## COc1cc2c(NC(C)=O)c3n(c2cc1OC)C[C@@](C)(C(=O)NC1CCCCCC1)N(CCC(C)C)C3=O
  % Inhibition: 22%
  Z score: -2.78

## COc1cc([C@H]2CC(O)=Nc3cccc4c3c2cn4Cc2ccccc2)ccc1OCC(N)=O
  % Inhibition: -14%
  Z score: 2.14

## O=C1CCN(Cc2ccoc2)CCN1CC1CCCCC1
  % Inhibition: -15%
  Z score: 1.72

## OC1(CCNc2ccc(Cl)cn2)CCCC1
  % Inhibition: -13%
  Z score: 1.49

## Cc1csc(CNC(=O)[C@H]2CC(=O)N(C)C2)n1
  % Inhibition: -3%
  Z score: 0.39

## Cn1ccc2ccn(CCNS(=O)(=O)Cc3ccccc3)c(=O)c21
  % Inhibition: 0%
  Z score: 0

## Cc1oc(C(C)C)cc1C(=O)N1CCNC[C@H]1C(=O)NC1CC1
  % Inhibition: 15%
  Z score: -1.98

## COc1ccc(CCNC(=O)CC[C@@H](C)[C@H]2CC[C@H]3[C@@H]4CC[C@@H]5C[C@H](O)CC[C@]5(C)[C@H]4C[C@H](O)[C@]23C)cc1
  % Inhibition: -1%
  Z score: 0.17

## Cc1ccc(S(=O)(=O)CCN2C(=O)c3ccccc3C2=O)cc1
  % Inhibition: -8%
  Z score: 0.95

## Cc1nsc(NC(=O)N2CCCCC23CC3)n1
  % Inhibition: -5%
  Z score: 0.96

## CNC(=O)[C@@H]1CN(Cc2cccc3[nH]ccc23)CCO1
  % Inhibition: 25%
  Z score: -2.81

## N[C@H]1CCN(c2ccc(Oc3ccccc3)cc2)C1
2 µM
  % Inhibition: -14% and -2%

## Cc1c(C#N)nn(-c2ccccc2)c1NC(=O)COC[C@H]1CCCO1
  % Inhibition: -1%
  Z score: 0.1

## COc1ccc(OCCN2CC(n3cccn3)C2)cc1
  % Inhibition: -11%
  Z score: 1.22

## Cc1nsc2ncc(C(=O)N3CCCCC3)c(N3CCC(C(=O)Nc4ccc(OC(F)(F)F)cc4)CC3)c12
  % Inhibition: 13%
  Z score: -2.16

## CCCCn1nccc1NC(=O)N[C@@H](C)C1CCOCC1
  % Inhibition: 3%
  Z score: -0.52

From ChEMBL document CHEMBL4888484, “Replenishing the malaria drug discovery pipeline: Screening and hit evaluation of the MMV Hit Generation Library 1 (HGL1) against asexual blood stage Plasmodium falciparum ,using a nano luciferase reporter read-out” (2022)
